The results in this text go back to US20260193317A1, “COMBINATION THERAPY WITH ACTRIIB RECEPTOR VARIANTS AND GLP-1 AGONISTS” (35PHARMA Inc., priority 2023, published 2026).

One series concerns TGFβ superfamily ligands. The series is described as follows: Neutralization profile across TGFβ superfamily ligands (HEK293 and HepG2 reporter assays, summary). The class given is cell-based, human. On the technique in general: A reporter such as luciferase makes a cellular process visible.
A short description of series [1]: SEC-HPLC monomer and HMW content of purified fusion proteins. The note with it: after Protein A purification. The class given is physicochemical. (In general: Size exclusion chromatography separates by hydrodynamic size, large species first.)

B1: P1373: hActRIIB L33W, 19 aa linker, IgG1-DL Fc; SEQ ID 232 (protein)
chain: ETRECIYYNANWELERTNQSGLERCEGEQDKRWHCYASWRNSSGTIELVKKGCWLDDFNCYDRQECVATEENPQVYFCCCEGNFCNERFTHLPEAGGPEVTYEPPPTGGGGSGGGGSGGGGSGG[human IgG1 Fc and a few adjoining residues not spelt out]
On to B1, for which the “improved potency on activin A, GDF-8, and GDF-11 relative to P75” value in the series on TGFβ superfamily ligands is ~ 4 fold. Also, in series [1], the “high molecular weight (HMW) content (SEC-HPLC)” value came to 2% and the “monomer content (SEC-HPLC)” value amounted to 98%.
